# In all, about 150,000 compounds went through this assay and about 540 (0.36%) showed an effect of 50% or more. This is one part of the list.
# Test system: Plasmodium falciparum
# Experiment: Primary screen in NF54 nanoGlo assay, in single point, at 2uM, 72h; a lower Z score goes with more inhibition
# Type: functional, Erythrocyte
# Conditions: timepoint 72 hour
SMILES,% Inhibition,Z score
OCC[C@H]1CN(c2ncnc3c2CCNCC3)CCN1CC1CC1,3%,-0.6
O=C(Cc1c[nH]c2ncccc12)Nc1scnc1-c1ccccc1,9%,-1.83
Nc1cc(N2CCC(N3CCN(CCc4ccccc4)CC3)C(O)C2)nc(N)n1 (centres undefined),-12%,1.89
CC(C)c1n[nH]c(C(N)=O)c1NC(=O)c1ccnc(C(F)(F)F)c1,-11%,2.1
O=C(c1ccc(NCc2ccccc2-c2ccc(CN3CCCC3)cc2)nc1)N1CCCC1,-2%,0.33
C[C@H](NC1CCC(C(=O)OC(C)(C)C)CC1)c1ccc(N2CCN(C)CC2)cc1 (some centres undefined),4%,-0.78
CC[C@@H](c1ccccc1)N(CC(=O)OC)C(=O)COCc1nc(C)no1,-10%,1.73
CCCN(CCN1CCN(CC)CC1)c1nc(-c2ccccn2)nc2c1CCC2,31%,-6.76
COCCN(CC1CCCN2CCCCC12)C(=O)c1cc(-c2c(C)nn(C)c2C)[nH]n1 (centres undefined),-6%,0.95
Cc1ccccc1-c1cccc(CN2CC(CO)C(CN3CCOCC3)C2)c1 (centres undefined),3%,-0.55
CCN(C)CC1CN(c2nc(-c3ccccc3)nc3ccccc23)CC1CO (centres undefined),-3%,0.56
Cc1ccc(F)c(OCC(=O)N2CCS(=O)(=O)C3COCCC32)c1 (centres undefined),-16%,2.47
CN1CCN(c2ncc(CN3CCN(C(=O)OC(C)(C)C)Cc4ccccc43)cn2)CC1,-5%,0.78
Cc1ccc(-c2ccnc(N3CCCN(Cc4ccncc4)CC3)n2)c(C)n1,-8%,1.65
CCCN1CCN([C@@H](C)CCCN(C(=O)c2cnn3ccc(C)nc23)C2CC2)CC1,0%,0.07
CC(C)Cn1cc(-c2nc(-c3ccc(OCC(F)F)nc3)no2)cn1,3%,-0.57
CCN1CC[C@H](NC(=O)N2CCN(c3ccncc3C)CC2)C1,0%,0.07
C1CCC(CCN2CCCN(C3CCOCC3)CC2)C1,-1%,0.16
Cn1c(NC[C@@H](c2ccccc2Cl)N2CCOCC2)nc2ccccc21,-7%,1.53
Cc1cc(N2CCC(N(C)Cc3nc4ccccc4c(=O)[nH]3)CC2)nc(N)n1,-1%,0.15
CC[C@H]1COC(C)(C)CN1C(=O)COc1ccc(C)cc1C,-9%,1.62
CCNc1ccc(-c2cc(CN(C)C)ccc2F)cn1,-7%,1.49
O=C(NCCCO)c1ccc(NCc2nc(-c3ccoc3)no2)cc1,0%,-0.05
Cc1nc([C@H](C)N(C)C(=O)c2ccc3nc(C4CCCCC4)oc3c2)c(C)s1,-1%,0.25
CC(C)(C)OC(=O)NC1CCN(CC(=O)NCCNc2ncnc3sccc23)CC1,-4%,0.62
CN1CCC(N2CCC[C@H](C(=O)N3CCN(c4ccc5nccn5n4)CC3)C2)CC1,-2%,0.42

SMILES,% Inhibition,Z score
COc1ccc2oc(CNCCc3nc(C)cs3)cc2c1,-5%,0.82
CC(C)(C)OC(=O)N1CC(O)C(CNCCCCc2cccc(C(F)(F)F)c2)C1 (centres undefined),0%,0.08
Cn1cc(CNCC2(N3CCOCC3)CCCC2)c(-c2ccc3c(c2)OCCO3)n1,-3%,0.64
CN1CCN(C[C@H](Nc2ncnc3[nH]ncc23)c2ccccc2)CC1,-3%,0.56
COCCC[C@H]1CCCN(C2CCN(c3ccc(-c4cc[nH]n4)cc3)CC2)C1,4%,-0.63
CC(C)(C)OC(=O)N1CCC[C@H](CCN2CCN(CCOc3ccccc3)CC2)C1,-14%,2.78
Nc1ccnc2ccc(-c3ccc(C(=O)NCC4CCOCC4)cc3)cc12,83%,-16.44
CCc1ccc(CCN(C)[C@@H](C)CS(C)(=O)=O)cc1,-2%,0.31
COc1cccc(Nc2nc(Nc3ccc(C)cc3)nc(C)c2N)c1,9%,-1.58
CC(=O)C1=C(O)C(=O)N(c2ccccn2)[C@@H]1c1ccccc1,-7%,1.24
CC(C)N1CCN(CCCN2CCC[C@H](C(F)(F)F)C2)CC1,-7%,1.56
CN1CCN(c2ccc(CNc3ccn(-c4ccccc4)n3)cc2)CC1,-1%,0.21
OC[C@H]1CCCCN1CCCNc1ccc(-c2ccccc2)nn1,0%,0.02
CN1CCC(Oc2ccc(CNCc3cccc4[nH]ccc34)cc2)CC1,19%,-3.22
CCOc1ccccc1C1CC(c2ccc(Cl)cc2Cl)Nc2nc3ccccc3n21 (centres undefined),-3%,0.48
NC(=O)c1ccc(N2CCCCC2)c(NC(=O)Nc2cc(-c3cc(F)cc(F)c3)[nH]n2)c1,6%,-0.86
Cc1nccn1-c1ccc([C@H](C)Nc2nc(-c3ccncc3)nc3c2CCC3)cc1,-7%,1.15
Fc1cccc(F)c1N1CC[C@H](NC2CCN(CC(F)F)CC2)C1,-7%,1.32
Cc1nc(CN)cc(NCCC2CCN(C(C)C)CC2)n1,-2%,0.34
O=C(C1CCN(C2CCOCC2)CC1)N1CC2CCC(C1)NC2 (centres undefined),0%,0.05
Cc1cc2cc(C(=O)N3Cc4cnc(-c5ccccc5)nc4C3)ccc2o1,5%,-1.11
Cc1cc(-n2cccn2)ccc1-c1c(-c2ccccc2)ncn1CCCCN,-2%,0.42
C[C@@H](C1CC1)n1cc(NC(=O)NC2CCN(C3CCN(C)CC3)CC2)cn1,-9%,1.54
COC[C@H]1CCCN(C(=O)C(C)(C)c2csc(-c3cccs3)n2)C1,5%,-1.03
CN1CCCN(CC2CC(CO)CN(C(=O)c3ccc4[nH]nnc4c3)C2)CC1 (centres undefined),-3%,0.44
Cc1cc2cc[nH]c2cc1NC(=O)c1cc(N2CC(C)OC(C)C2)ccn1 (centres undefined),-4%,0.87

# Reference: ChEMBL document CHEMBL5308541, “MAIP: An Open-Source Tool to Enrich High-Throughput Screening Output and Identify Novel, Druglike Molecules with Antimalarial Activity” (ACS Med Chem Lett, 2023)
